# Data taken from paper PMC4336329 (PLoS ONE, 2015).
# The whole screen tested about 310,000 compounds, of which about 2,200 (0.71%) showed an effect of 50% or more. Effects have a minus sign here. Some of the results follow.
# Molecular target: human ether-à-go-go-related gene (hERG) potassium channel (human, UniProt Q12809)
# Assay: primary screen, population patch clamp on CHO cells stably expressing hERG
# Sequence of human ether-à-go-go-related gene (hERG) potassium channel (Q12809 whole entry, looked up): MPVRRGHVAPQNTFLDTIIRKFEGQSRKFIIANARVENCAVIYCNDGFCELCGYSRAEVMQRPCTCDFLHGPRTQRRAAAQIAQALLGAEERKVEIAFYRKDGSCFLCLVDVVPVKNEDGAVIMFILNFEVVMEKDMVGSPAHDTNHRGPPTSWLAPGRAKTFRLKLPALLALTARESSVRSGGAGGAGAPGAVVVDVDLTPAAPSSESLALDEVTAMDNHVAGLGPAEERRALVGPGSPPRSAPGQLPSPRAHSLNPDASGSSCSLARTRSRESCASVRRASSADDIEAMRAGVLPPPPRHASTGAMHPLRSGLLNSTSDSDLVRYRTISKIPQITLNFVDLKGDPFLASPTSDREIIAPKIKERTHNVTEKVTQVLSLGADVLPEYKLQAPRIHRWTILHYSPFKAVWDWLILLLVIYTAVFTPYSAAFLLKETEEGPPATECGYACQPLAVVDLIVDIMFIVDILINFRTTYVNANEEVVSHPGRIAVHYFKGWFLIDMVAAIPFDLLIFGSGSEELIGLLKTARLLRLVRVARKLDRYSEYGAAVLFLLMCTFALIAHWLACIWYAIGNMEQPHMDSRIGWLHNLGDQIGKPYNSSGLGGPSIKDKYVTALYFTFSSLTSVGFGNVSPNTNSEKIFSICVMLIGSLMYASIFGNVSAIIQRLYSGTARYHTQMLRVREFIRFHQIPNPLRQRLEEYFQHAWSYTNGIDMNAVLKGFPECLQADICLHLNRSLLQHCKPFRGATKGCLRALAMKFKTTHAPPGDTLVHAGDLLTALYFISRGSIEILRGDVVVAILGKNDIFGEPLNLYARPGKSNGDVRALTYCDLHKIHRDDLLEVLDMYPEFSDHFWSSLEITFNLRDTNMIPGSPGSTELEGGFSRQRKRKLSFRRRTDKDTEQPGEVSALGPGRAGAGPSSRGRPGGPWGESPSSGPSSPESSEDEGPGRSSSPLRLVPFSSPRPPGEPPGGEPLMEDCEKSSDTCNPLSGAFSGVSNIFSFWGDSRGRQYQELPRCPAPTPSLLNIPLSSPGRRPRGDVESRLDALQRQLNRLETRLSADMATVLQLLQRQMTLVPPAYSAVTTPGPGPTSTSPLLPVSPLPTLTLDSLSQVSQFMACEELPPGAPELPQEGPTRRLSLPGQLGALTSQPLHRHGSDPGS
row,SMILES,"hERG current change (%, negative = inhibition) at 1uM [%]"
1,Cc1cc(S(=O)(=O)N2CCC(N3CCCCC3)CC2)ccc1-n1cnnn1,10.2
2,Br.CC(=O)c1ccc(N2Cc3ccccc3C3(CCOCC3)C2=N)cc1,-36.9
3,CCCCN(CC)C(=O)c1ccc(Cl)cc1,21.8
4,COc1ccc(C(=O)Cn2cc([N+](=O)[O-])nc2C)cc1,14.2
5,CC1=C(C(=O)Nc2ccc(Br)cc2)C(c2ccco2)NC(=O)N1 (stereo not drawn),8.34
6,S=c1[nH]nc(C2CCCCC2)n1/N=C/C=C/c1ccccc1,10.7
7,COc1cc(CC(=O)Nc2cc(S(C)(=O)=O)ccc2Cl)cc(OC)c1OC,10.9
8,O=C(c1scc2c1CCCC2)N1CCCCC1,20.2
9,Cc1onc(-c2c(Cl)cccc2Cl)c1C(=O)Nc1ccc2c(C(F)(F)F)cc(=O)oc2c1,-9.17
10,O=C(Cn1nc2ccccc2n1)N/N=C/c1cc([N+](=O)[O-])ccc1O,0.346
11,CCCc1nnc(NC(=O)CCC(=O)N2CCN(S(=O)(=O)c3ccc(F)cc3)CC2)s1,10.2
12,CCN(C(=O)c1ccc(NC(C)=O)cc1)c1ccccc1C,11.2
13,COc1cccc(NC(=O)[C@H](CC(C)C)NC(=O)N2CCn3c2nc2ccccc23)c1,20.3
14,CN1/C(=C\C(=O)COC(=O)Cn2nnc(-c3ccccc3)n2)C(C)(C)c2ccccc21,14.2
15,CCCc1cc(=O)[nH]c(SCC(=O)c2cc(C)n(-c3c(C)n(C)n(-c4ccccc4)c3=O)c2C)n1,15.3
16,Cc1ccc(C2(C)NC(=O)N(CC(=O)N3CCN(S(=O)(=O)c4ccc(Cl)s4)CC3)C2=O)cc1 (stereo not drawn),-16.8
17,O=C(Nc1ccc([N+](=O)[O-])cc1)c1ccccc1,13.4
18,Cc1ccc(C(=O)NC(=S)Nc2ccc(N3CCOCC3)cc2)cc1,16.3
19,CSCC[C@H](NC(=O)OC(C)(C)C)c1nnc(SCC(=O)Nc2c(C)cccc2C)o1,-4.41
20,CCc1c(C)nc2ncnn2c1NCc1cccs1,6.69
21,CN(CC(=O)NCCc1ccc(F)cc1)Cc1cccc(Cl)c1,8.65
22,CCOC(=O)CSc1nc2cccnc2n1C,12.5
23,CCC(C)Sc1nc(C)nc2c1c(=O)n(C)c(=O)n2C (stereo not drawn),-9.12
24,O=C1CCCc2nc(N3CCc4ccccc43)ncc21,2.05
